Measured values taken from PMC4336329 (PLoS ONE, 2015).
Screen size: about 310,000 compounds; about 14,000 (4.5%) showed an effect of 50% or more. The effect is printed as a negative number. The list shows a part of the results.

target: human ether-à-go-go-related gene (hERG) potassium channel (human, UniProt Q12809); assay: primary screen, population patch clamp on CHO cells stably expressing hERG
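Note: peak tail current of the secondary pulse compared with the same well before compound.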

Sequence of human ether-à-go-go-related gene (hERG) potassium channel (Q12809 whole entry, looked up): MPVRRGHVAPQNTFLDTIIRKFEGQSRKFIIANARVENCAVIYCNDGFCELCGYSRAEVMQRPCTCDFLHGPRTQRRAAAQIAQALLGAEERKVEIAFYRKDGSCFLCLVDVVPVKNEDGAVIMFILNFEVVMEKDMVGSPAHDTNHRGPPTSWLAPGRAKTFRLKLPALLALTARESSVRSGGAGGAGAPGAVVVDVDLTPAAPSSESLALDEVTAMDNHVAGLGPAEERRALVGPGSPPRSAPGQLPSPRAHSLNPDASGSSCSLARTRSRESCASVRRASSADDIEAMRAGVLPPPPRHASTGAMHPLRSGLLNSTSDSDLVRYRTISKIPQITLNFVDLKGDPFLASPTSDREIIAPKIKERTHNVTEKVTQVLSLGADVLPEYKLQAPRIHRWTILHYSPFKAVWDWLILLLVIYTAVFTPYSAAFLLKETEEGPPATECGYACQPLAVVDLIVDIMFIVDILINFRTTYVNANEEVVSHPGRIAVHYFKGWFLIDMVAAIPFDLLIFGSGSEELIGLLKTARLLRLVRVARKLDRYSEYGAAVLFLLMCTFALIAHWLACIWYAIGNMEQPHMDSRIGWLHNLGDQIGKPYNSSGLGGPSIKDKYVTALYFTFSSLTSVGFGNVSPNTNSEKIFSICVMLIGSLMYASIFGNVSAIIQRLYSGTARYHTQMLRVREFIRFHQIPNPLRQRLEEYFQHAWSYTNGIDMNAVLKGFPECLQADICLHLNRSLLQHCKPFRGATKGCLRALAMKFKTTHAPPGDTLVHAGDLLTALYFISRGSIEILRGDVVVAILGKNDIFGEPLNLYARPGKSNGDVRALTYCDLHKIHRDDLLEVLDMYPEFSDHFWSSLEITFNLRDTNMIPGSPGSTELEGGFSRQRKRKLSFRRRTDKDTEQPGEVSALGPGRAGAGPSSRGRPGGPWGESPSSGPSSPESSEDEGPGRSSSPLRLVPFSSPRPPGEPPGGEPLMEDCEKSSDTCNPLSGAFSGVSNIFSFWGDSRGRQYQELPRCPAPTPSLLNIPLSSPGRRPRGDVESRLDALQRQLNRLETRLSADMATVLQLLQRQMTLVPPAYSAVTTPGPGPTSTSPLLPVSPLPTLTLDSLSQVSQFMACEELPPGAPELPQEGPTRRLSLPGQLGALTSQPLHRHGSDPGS

SMILES	hERG current change (%, negative = inhibition) at 10uM
COC(=O)c1ccc2c(=O)n(Cc3ccco3)c(SCC(=O)Nc3ccc(C)c(Cl)c3)nc2c1	15.7%
Cc1cccc(NS(=O)(=O)c2ccc(Oc3ccccc3)cc2)n1	-21.8%
COc1ccc(CNC(=O)CCS(=O)(=O)Cc2cccc(Cl)c2)c(OC)c1	21.2%
O=C(NCCCO)c1cc2c(cn1)[nH]c1ccccc12	0.591%
COc1ccc(OCC(=O)NC(=S)NNC(=O)COc2ccc(Br)cc2Cl)cc1	12.4%
COc1ccc(CCNC(=O)C(=O)NCC2CCCN2S(=O)(=O)c2ccc(OC)cc2)cc1 (stereo not shown)	-33.5%
CC(=O)Nc1nc(SCc2cccc3ccccc23)n[nH]1	14.5%
Cn1cc(Cl)c(C(=O)Nc2cccc(Cl)c2Cl)n1	4.56%
CCC(Sc1nc2c(cnn2-c2ccc(Cl)cc2)c(=O)[nH]1)C(=O)OC (stereo not shown)	1.86%
COC(=O)c1nc(N)sc1-c1ccc(Cl)cc1	11.1%
CC(C)C(c1nnnn1C1CCCCC1)N1CCN(C(=O)c2ccco2)CC1 (stereo not shown)	3.66%
COc1cc(CNC2CCCCCC2)cc(OC)c1OC	-4.65%
Oc1oc(-c2ccco2)nc1C=Nc1cccc(Cl)c1	-6.76%
CCCN(CCC)C(=O)c1ccc2c(c1)S(=O)(=O)c1ccccc1C2=O	-29.2%
CC(=O)Nc1ccc(NC(=O)CSc2ccc(C)cc2)cc1	4.42%
COc1ccc(/C=N\NC(=O)c2ccc([N+](=O)[O-])cc2)cc1COc1c(F)c(F)cc(F)c1F	4.74%
CC(C(=O)NCCCc1ccccc1)n1cccc1C(=O)c1ccccc1 (stereo not shown)	-5.48%
Cc1cc[n+](CC(=O)Nc2ccccc2)cc1.[Br-]	31%
NC(=O)COn1c(SCC(N)=O)nc2ccccc2c1=O	19.3%
Cn1c(=O)[nH]c(=O)c2c1nc(Br)n2CC(O)COc1ccccc1 (stereo not shown)	-0.394%
CC(OC(=O)CCc1nc2ccccc2[nH]c1=O)C(=O)c1ccccc1 (stereo not shown)	-14%
CCCN1C2CCCC1CC(NC(=O)c1cc(OC)cc(OC)c1)C2 (stereo not shown)	-12.6%

SMILES	hERG current change (%, negative = inhibition) at 10uM
CCC(C)NC(=O)NC(=O)N(C1CCCCC1)S(C)(=O)=O (stereo not shown)	-2.65%
C=C(C)Cn1c(CCNC(=O)CCC)nc2ccccc21	4.16%
O=[N+]([O-])c1cccc2ccc(/C=C/c3ccc(C(F)(F)F)cc3)nc12	4.29%
COc1ccccc1-c1ccc(/C=C2/C=C(C)OC2=O)o1	35.7%
Nc1cc(=O)nc(SCc2ccccc2)n1Cc1ccco1	-12.7%
Cc1c(OCC(=O)NCC(O)c2ccccc2)ccc2c(-c3ccccc3)cc(=O)oc12 (stereo not shown)	4.93%
CC(=O)NC(CC(=O)NCCCn1ccc2ccccc21)c1ccccc1 (stereo not shown)	19.1%
CCOC(=O)C1CCN(CCC(=O)Nc2ccc(C)cc2)CC1	-32.4%
Cc1ccc(S(=O)(=O)c2c(C)cc(C)nc2Cl)c(C)c1	-7.3%
N/C(=N\OC(=O)c1cccs1)C1(c2ccc(Cl)cc2Cl)CC1	-0.228%
Cc1c(C(=O)Nc2cccc(Cl)c2)cn2c(nc3ccccc32)c1C#N	6.75%
Clc1ccc(C(c2ccc(Cl)cc2)n2cc[n+](CC(OCc3ccc(Cl)cc3Cl)c3ccc(Cl)cc3Cl)c2)cc1.[Cl-] (stereo not shown)	-62.8%
CCCc1cc(=O)oc2cc(C)cc(OCC(=O)NCCCN3CCOCC3)c12	-7.61%
O=[N+]([O-])c1ccc(S(=O)(=O)Nc2ccc(S(=O)(=O)N3CCCC3)cc2)cc1	-14.1%
CC1CCCC/C1=N\NC(=S)Nc1cccnc1 (stereo not shown)	15.8%
COc1cc(/C=N/NC(=O)c2ccc(-c3ccccc3)cc2)cc(OC)c1OC	8.51%
Cc1cc(C(=O)NC2CC(C)(C)Cc3c2cnn3-c2ccccc2C)c(C)o1 (stereo not shown)	0.287%
COc1ccccc1-n1ccnc(SCC(=O)NCc2ccccc2Cl)c1=O	8.39%
Cc1c(S(=O)(=O)N2CCN(c3ccccc3)CC2)c(=O)n(C)c(=O)n1C	-9.44%
CS(=O)(=O)N(CC(=O)NCC1CCCO1)c1ccc(F)c(Cl)c1 (stereo not shown)	-7.66%
CNC(=S)N1CCC(NC(=O)C(Cc2ccccc2)NC(C)=O)CC1 (stereo not shown)	0.532%
CCCC(=O)Nc1ccc(NC(=O)c2cccc(OC)c2)nc1	-4.43%

SMILES	hERG current change (%, negative = inhibition) at 10uM
Cc1cccc(C(=O)NCC(=O)OCC(=O)N2CCN(S(=O)(=O)c3ccc(C)cc3C)CC2)c1	-48.9%
COc1ccc(NC(=O)CSc2nnc(NC(=O)C3CC3)s2)cc1OC	19%
N#Cc1ccccc1OCC(=O)Nc1c(C(=O)C2CC2)oc2ccccc12	2.52%
CC(C)NC(=O)c1ccc(-c2ccccc2C(F)(F)F)o1	-7.11%
C=CCNc1nc(N)c([N+](=O)[O-])c(N2CCCCCC2)n1	-24.9%
O=C(Nc1nnc(SCc2ccc(Cl)cc2)s1)C1CC(=O)N(Cc2ccccc2)C1 (stereo not shown)	17.4%
CN=c1scc(-c2ccc(Cl)cc2)n1C	-17.3%
FC(F)Sc1ccc(-n2cc(-c3ccc(Cl)cc3)[n+]3c2CCC3)cc1.[Br-]	-74.3%
Cc1cc(N=Nc2ccc(Cl)cc2)cc(CN2CCOCC2)c1O	11.6%
CCS(=O)(=O)N1CCC(C(=O)Nc2cccc(C(C)=O)c2)CC1	6.18%
COc1ccc(CC(=O)OCC(=O)N2CCCc3ccccc32)cc1OC	-5.01%
O=C(CN1CCCCC1)NNc1nc(-c2ccccc2)c2cc(Cl)ccc2n1	-58%
N#Cc1ccccc1OCC(=O)C1CC1	15.7%
COc1ccc(OC)c(CCNC(=O)CSc2ccsc2[N+](=O)[O-])c1	13.8%
COc1cc(C)ccc1OCc1cc(C(=O)N(C)CCCN2CCOCC2)no1	-1.34%
CC1=C(C(N)=O)C(c2cccc(OCc3ccccc3)c2)n2nnnc2N1 (stereo not shown)	26.8%
Cc1cc(-c2nc3c4c5c(sc4[nH]c(=O)n3n2)CCC5)c(C)o1	2.88%
Cn1cc(S(=O)(=O)CC(=O)Nc2ccc3c(c2)OCCO3)c2ccccc21	9.45%
OCCC1CN(Cc2cccc(C(F)(F)F)c2)CCN1Cc1ccccc1 (stereo not shown)	-46.2%
NC(=O)NC(=O)CSc1nc2cc([N+](=O)[O-])ccc2n1-c1cccc(C(F)(F)F)c1	-57.7%
O=C(Oc1c(CN2CCOCC2)cc(Cl)c2cccnc12)c1ccccc1	-19.6%
CN(C)CCCNC(=O)N1c2ccccc2C=Cc2ccccc21.Cl	22.5%

SMILES	hERG current change (%, negative = inhibition) at 10uM
O=C(OCn1nnc2ccccc2c1=O)c1cccnc1Cl	8.81%
CC(=O)Nc1cccc(NS(=O)(=O)c2cccc3nsnc23)c1	4.8%
C/C=C/C=N\NC(=O)c1ccncc1	21.6%
CCOC(=O)C1CCN(C(=O)CN(c2cccc(OC)c2)S(=O)(=O)c2ccccc2)CC1	-39.8%
Cc1c(-c2ccccc2)c(=O)oc2cc(O)ccc12	8.4%
Nc1cccc(-n2nncc2-c2ccccc2)c1	-11%
CCN(C(=O)CSc1nnc(-c2ccc(Cl)cc2)n1C)C1CCS(=O)(=O)C1 (stereo not shown)	-28.4%
O=[N+]([O-])c1ccccc1-c1ccc(C(=S)N2CCCCC2)o1	6.69%
COc1ccc2c(C)c(CC(=O)N3CCN(C(=O)C4COc5ccccc5O4)CC3)c(=O)oc2c1C (stereo not shown)	-53.7%
CC(C)c1nc(Cl)c(C#N)c2c1COC(C)(C)C2	-9.97%
Cc1cc(C)nc(/N=C(\N)N2CCc3ccccc32)n1	-11.7%
CCCCn1c(N)c(N(CC(C)C)C(=O)c2cc(Cl)nc3ccccc23)c(=O)[nH]c1=O	10.4%
Cc1cccc(CN2[C@@H](CC(C)C)COCCS2(=O)=O)c1	-6.53%
O=C(/C=C/c1ccc(OCCCF)cc1)N1CCN(Cc2ccccc2)CC1	-65.6%
Cc1ccccc1OCC(=O)NN1C(=O)C2C3C=CC(O3)C2C1=O (stereo not shown)	12.3%
Cc1ccc(N(Cc2cc(=O)[nH]c3ccccc23)C(=O)C(C)C)cc1	-10.8%
Cc1nc(N)nc(-c2ccccc2O)n1	19.6%
CC1CCCCN1C(=O)COc1ccccc1F (stereo not shown)	19.9%
O=C1COc2ccc(C(=O)c3ccccc3C(=O)NCc3ccco3)cc2N1	-5.55%
COc1cc(OC)cc(C(=O)NC(C(=O)NCCN(C)C)C23CC4CC(CC(C4)C2)C3)c1 (stereo not shown)	-1.16%
O=C(C1CC=CCC1)N1CCN(C(=O)C2CC=CCC2)CC1 (stereo not shown)	7.03%
Cc1ccc(N=C2SC(C(=O)Nc3ccc(OC(F)(F)F)cc3)C(N)=C2C(=O)Nc2c(C)cc(C)cc2C)cc1 (stereo not shown)	3.81%
